The results in this text go back to publication PMC4336329 (PLoS ONE, 2015).

Hit rate of the full screen: of about 310,000 compounds, about 14,000 (4.5%) showed an effect of 50% or more. Effects have a minus sign here. This is one part of the list.
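Note: peak tail current of the secondary pulse compared with the same well before compound.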

Sequence of human ether-à-go-go-related gene (hERG) potassium channel (Q12809 whole entry, looked up): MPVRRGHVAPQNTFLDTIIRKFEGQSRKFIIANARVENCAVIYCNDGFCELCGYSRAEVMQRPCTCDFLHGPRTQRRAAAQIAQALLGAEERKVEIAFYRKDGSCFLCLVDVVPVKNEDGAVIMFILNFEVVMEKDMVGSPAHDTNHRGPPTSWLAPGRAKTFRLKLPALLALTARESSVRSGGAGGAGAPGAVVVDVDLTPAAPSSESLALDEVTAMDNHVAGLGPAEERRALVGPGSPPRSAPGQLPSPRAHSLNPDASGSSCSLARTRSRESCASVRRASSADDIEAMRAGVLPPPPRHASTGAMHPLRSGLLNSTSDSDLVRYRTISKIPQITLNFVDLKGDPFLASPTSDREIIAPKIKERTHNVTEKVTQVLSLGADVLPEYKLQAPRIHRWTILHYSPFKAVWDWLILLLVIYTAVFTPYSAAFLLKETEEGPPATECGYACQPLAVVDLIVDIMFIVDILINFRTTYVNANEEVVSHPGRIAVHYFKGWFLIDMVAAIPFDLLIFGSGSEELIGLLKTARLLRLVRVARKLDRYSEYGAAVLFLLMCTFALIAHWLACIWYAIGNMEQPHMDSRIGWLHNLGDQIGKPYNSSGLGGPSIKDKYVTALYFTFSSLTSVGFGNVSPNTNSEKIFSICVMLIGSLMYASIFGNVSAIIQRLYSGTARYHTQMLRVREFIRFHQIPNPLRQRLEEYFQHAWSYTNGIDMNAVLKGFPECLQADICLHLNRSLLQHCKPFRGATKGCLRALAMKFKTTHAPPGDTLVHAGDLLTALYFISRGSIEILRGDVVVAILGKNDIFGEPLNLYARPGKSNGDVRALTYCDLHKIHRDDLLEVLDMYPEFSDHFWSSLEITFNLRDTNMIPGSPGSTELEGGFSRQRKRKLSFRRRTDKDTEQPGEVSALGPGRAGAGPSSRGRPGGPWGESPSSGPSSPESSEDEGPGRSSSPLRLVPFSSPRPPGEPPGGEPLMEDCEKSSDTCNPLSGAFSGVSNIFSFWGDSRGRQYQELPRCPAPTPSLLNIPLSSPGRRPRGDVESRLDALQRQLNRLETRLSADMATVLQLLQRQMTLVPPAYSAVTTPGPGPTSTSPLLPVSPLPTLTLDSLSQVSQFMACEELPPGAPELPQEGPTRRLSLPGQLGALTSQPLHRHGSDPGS

The assay concerns the target human ether-à-go-go-related gene (hERG) potassium channel (human, UniProt Q12809). Briefly: primary screen, population patch clamp on CHO cells stably expressing hERG. On the procedure:
Briefly, Chinese hamster ovary (CHO) cells stably expressing the hERG channel were dislodged from tissue culture flasks and dispensed into PPC plates. […] During the recording, background leak currents were estimated by a 100 ms step to -80 mV from an initial holding potential of -70 mV and subtracted from the subsequent current measurement. The campaign was conducted in two phases using slight differences in recording protocol. In the first phase, the initial voltage pulse used a 100 ms step to -30 mV from a holding potential of -70 mV, a 2 s conditioning step to +25 mV, and a 2 s test step to -30 mV. During the second phase of the screen, the potential during the conditioning step was raised to +45 mV. In both phases of the campaign, a secondary voltage pulse was applied using the same parameters as the second phase initial pulse. The initial and secondary pulses were applied in the absence of compound, and upon application of 1 μM and 10 μM test concentrations. […]
`COc1ccc(C(CNC(=O)c2ccc(NS(=O)(=O)c3ccc4c(c3)OCCO4)cc2)N(C)C)cc1` (centres unmarked): the “hERG current change (%, negative = inhibition) at 10uM” value is -7.25%.
Take `O=C(CN1CCN(Cc2ccc(Cl)cc2)C1=O)NCCCN1CCN(c2ccc(F)cc2)CC1`: the “hERG current change (%, negative = inhibition) at 10uM” value was -81%.
With `CC(OC(=O)c1ccc2ccccc2n1)C(=O)Nc1ccc(N2CCOCC2)cc1` (centres unmarked), the “hERG current change (%, negative = inhibition) at 10uM” value is given as -8.35%.
As for `O=[N+]([O-])c1ccc(-c2ccc(C=Nc3cccc4ccccc34)o2)cc1`, the “hERG current change (%, negative = inhibition) at 10uM” value is on record as 12.1%.
Turning to `C/C(=N/Nc1ccccc1C(=O)O)c1cccs1`, the “hERG current change (%, negative = inhibition) at 10uM” value was determined as 18.6%.
For `CSc1nnc(-c2ccc(S(=O)(=O)N3CCOCC3)cc2)n1CC1CCCO1` (centres unmarked), the “hERG current change (%, negative = inhibition) at 10uM” value was -2.43%.
For `O=C(Nc1cnc2ccccc2c1)c1ccco1`, the “hERG current change (%, negative = inhibition) at 10uM” value was 8.78%.
As for `C(=N\c1nc2ccccc2n1CCN1CCOCC1)/c1cccs1`, the figure is -20.7%; as for `Cc1nc2c(c(=O)n1CCC1=CCCCC1)c1nc3ccccc3nc1n2/N=C/c1ccco1`, -22%.
Regarding `Cc1cccc(NC(=O)Nc2ccncc2)c1`, the “hERG current change (%, negative = inhibition) at 10uM” value turned out to be 17.4%.
To `Cc1cc(=O)cc(C)n1-c1ccc(Cl)cc1` belongs 15%; to `CCN(CC)c1ccc(NC(=O)c2ccco2)c(C)c1`, -4.43%.
To `Clc1ccccc1Cn1nnc2c(NCC3CC3)ncnc21` belongs -10.9%.
To `CC(C)(C)C(=O)Cn1c(NCCCl)nc2ccccc21.Cl` belongs -0.838%.
Turning to `CC(C)c1ccccc1NC(=S)NN(Cc1ccccc1)c1ccccc1`, the “hERG current change (%, negative = inhibition) at 10uM” value came to 8.79%.
As for `Cc1cc(Br)ccc1N=C1NC(=O)CS1`, the figure is 1.03%.
Turning to `O=C(c1nc2ccccn2c1CNCCCn1nnc2ccccc21)N1CCOCC1`, the “hERG current change (%, negative = inhibition) at 10uM” value was -19.4%.
With `Cc1c(O)ccc2c3c(c(=O)oc12)CCCC3`, the “hERG current change (%, negative = inhibition) at 10uM” value is -3.03%.
As for `COc1ccc(-c2ccc(C(C)=O)cc2)cc1[C@H]1[C@H]2C=CC[C@@H](C)[C@@H]2C(=O)N1Cc1ccccc1`, the figure is 0.193%; as for `O=[N+]([O-])c1ccc(Cc2ccccn2)c([N+](=O)[O-])c1`, -50.2%.
For `O=C(CC1Oc2ccccc2NC1=O)NCc1ccccc1` (centres unmarked), the “hERG current change (%, negative = inhibition) at 10uM” value is recorded as -3.55%.
As for `COc1ccc(C)cc1NC(=O)COC(=O)Cc1ccc(-c2ccccc2)cc1`, the figure is -2.73%; as for `C=CCNC(=S)NNC(=O)c1cccn(Cc2cccc(Cl)c2)c1=O`, -8.26%.
To `CC1=C(C#N)C(=O)NC(=O)/C1=C/c1ccc(-c2ccc(S(N)(=O)=O)cc2)o1` belongs 14.9%; to `CC1CCCCC12NC(=O)N(CC(=O)Nc1ccccc1-c1ccccc1)C2=O` (centres unmarked), 0.994%; to `O=C(Cn1cc(C(F)(F)F)ccc1=O)NC1CCCC1`, 6.25%.
Regarding `Cn1c(C(=O)NCCCN2CCc3ccccc3C2)cc2c(=O)n(C)c3ccccc3c21`, the “hERG current change (%, negative = inhibition) at 10uM” value is on record as -33.7%.
On to `CCOc1ncccc1C(=O)Nc1ccc(F)c(Cl)c1`, for which the “hERG current change (%, negative = inhibition) at 10uM” value was determined as 24.1%.
On to `Cc1csc(NC(=O)CSc2nc(=O)[nH]c3c2CCCC3)n1`, for which the “hERG current change (%, negative = inhibition) at 10uM” value stood at 2.43%.
Regarding `Cc1nnc(-c2cccc(Br)c2)c2cn(-c3cccc(Br)c3)nc12`, the “hERG current change (%, negative = inhibition) at 10uM” value is 0.9%.
In the case of `Cc1cc(NC(=O)COC(=O)CCS(=O)(=O)c2ccc(Cl)cc2)no1`, the “hERG current change (%, negative = inhibition) at 10uM” value is 12.1%.
`CC(C)(C)NC(=O)C(c1ccco1)N(C(=O)Cn1nnc(-c2ccc(F)cc2)n1)c1ccccc1F` (centres unmarked): the “hERG current change (%, negative = inhibition) at 10uM” value is reported as -6.11%.
As to `COc1ccccc1NC(=O)Cn1nc(Cc2cccnc2)c2ccccc2c1=O`, the “hERG current change (%, negative = inhibition) at 10uM” value is on record as -15.7%.
To `Cc1c(C)n(Cc2ccccc2)c2ccc(C(=O)OCCCN(C)C)cc12` belongs -1.91%.
In the case of `C#CCSc1nnnn1-c1ccc(OCC)cc1`, the “hERG current change (%, negative = inhibition) at 10uM” value is reported as -14.2%.
For the compound `C=CCN(c1ccc(Cl)cc1)S(=O)(=O)c1cccc(C(=O)OCC(=O)N(C)C)c1`, the “hERG current change (%, negative = inhibition) at 10uM” value is on record as -27.7%.
To `COc1cccc(Sc2nc(-c3ccccc3)ncc2S(C)(=O)=O)c1` belongs 13.1%; to `CC(C)N1CCC(NC(=O)Nc2ccccc2)CC1`, 4.73%.
As for `CCCCn1c(N)c(N(Cc2ccccc2OC)C(=O)C(C)C)c(=O)[nH]c1=O`, the “hERG current change (%, negative = inhibition) at 10uM” value is reported as 4.7%.
On to `COc1ccc(C(=O)NN2C(=S)N(c3ccc(OC)cc3)C(=O)C2CC(N)=O)cc1` (centres unmarked), for which the “hERG current change (%, negative = inhibition) at 10uM” value was 15.3%.
For the compound `CCCCN(CC)CCNC(=O)c1cn(CCOC)c(=O)c2c1c1ccccc1n2C`, the “hERG current change (%, negative = inhibition) at 10uM” value is recorded as -24.7%.
Consider `Cc1ccccc1NC(=O)CN1C(=O)NC(C)(CCc2ccccc2)C1=O` (centres unmarked), for which the “hERG current change (%, negative = inhibition) at 10uM” value was 22.2%.
As for `C=C(C)C(=O)Nc1cccc(C2=NOC3(C2)C[C@H](C(N)=O)N(C(=O)C(c2ccccc2)c2ccccc2)C3)c1` (some centres unmarked), the figure is -24.6%; as for `O=C(NCc1cccc(F)c1F)C1CCC(=O)N(C2CC2)C1` (centres unmarked), 15.1%.
